Data taken from PubChem BioAssay AID360 (National Center for Advancing Translational Sciences (NCATS), 2006).
In all, about 48,000 compounds went through this assay and about 550 (1.1%) were called active. Another 4% or so got no clear call; they are omitted. Cut-off read from the data, not from the text of the source: active = potency below about 15 µM; inconclusive = mostly about 16 µM to 33 µM; inactive = weaker than that. The list shows a part of the results.

Each compound was assayed against Lysosomal acid glucosylceramidase (Homo sapiens) (UniProt P04062) (assay: Glucocerebrosidase). Conditions: purified enzyme, resorufin glucoside fluorescence (screen aimed at inhibitors), 20 min; series mostly up to 77 µM; activity change, negative = inhibition: at the top concentration.
Chain of UniProt P04062 (P04062 whole entry, looked up): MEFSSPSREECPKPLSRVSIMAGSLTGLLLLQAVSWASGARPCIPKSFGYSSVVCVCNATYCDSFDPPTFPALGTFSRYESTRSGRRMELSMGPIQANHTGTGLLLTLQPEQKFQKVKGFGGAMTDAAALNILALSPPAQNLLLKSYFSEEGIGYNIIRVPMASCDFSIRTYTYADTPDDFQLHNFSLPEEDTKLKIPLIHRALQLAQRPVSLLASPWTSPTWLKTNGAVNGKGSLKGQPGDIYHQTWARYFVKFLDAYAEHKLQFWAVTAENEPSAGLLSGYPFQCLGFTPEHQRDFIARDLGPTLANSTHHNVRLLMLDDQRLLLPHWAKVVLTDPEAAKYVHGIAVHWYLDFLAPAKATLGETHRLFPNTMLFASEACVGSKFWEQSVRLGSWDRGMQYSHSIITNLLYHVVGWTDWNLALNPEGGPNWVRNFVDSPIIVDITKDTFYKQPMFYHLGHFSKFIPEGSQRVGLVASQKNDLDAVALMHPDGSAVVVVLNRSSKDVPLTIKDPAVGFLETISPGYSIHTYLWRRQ
Method in brief: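 Wild-type enzyme at 0.2 nM final in 50mM citric acid/KH2PO4, 10mM sodium taurocholate, 0.01% tween-20, pH 5.9, with resorufin beta-D-glucopyranoside at 30 uM final. Compounds titrated, 20 min at RT, red fluorescence read; AC50 from titration.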
Potency is the fitted concentration of half-maximal effect.
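Throughout, for potency: the screen sought inhibitors.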

Potency, inactive:
COc1ccc2c(c1)CCCC21NC(=O)NC1=O (configuration not stated) > 76.9 µM, COc1ccc(-n2cnnc2)cc1 > 76.9 µM, CCOC(=O)CSc1nc(C)c(C(=O)OCC)s1 > 76.9 µM, COc1ccc2nc(NC(=O)Cn3cnc4c(=O)n(C)c(=O)n(C)c43)sc2c1 > 76.9 µM, Cc1c(O)c(CN2CCCC2)cc2c3c(c(=O)oc12)CCC3 > 76.9 µM, c1ccc2[nH]c(NC3=NCCC3)nc2c1 > 76.9 µM, CC12CN3CC(C)(CN(C1)C3c1ccc3c(c1)OCO3)C2=O (configuration not stated) > 76.9 µM, Cc1ccc(S(=O)(=O)N[C@@H](C)C(=O)N2CCC(C(=O)N3CCC[C@H]3C(=O)O)CC2)cc1 > 76.9 µM, O=C(CCSc1nnc2ccccn12)Nc1ccc(F)cc1 > 76.9 µM, CC(C)NC(=O)C1CCCN(S(C)(=O)=O)C1 (configuration not stated) > 76.9 µM, COc1ccccc1NC(=O)CCN1C(=O)C2CC=C(Cl)CC2C1=O (configuration not stated) > 76.9 µM, Cn1nnc(NCc2cc(Br)ccc2OCc2cccs2)n1 > 76.9 µM, O=C(CN1CCN(S(=O)(=O)c2ccc(F)cc2)CC1)Nc1cc(C(F)(F)F)ccc1Cl > 76.9 µM, O=C(Cc1c(O)c2ccccc2[nH]c1=O)NCc1cccc(F)c1 > 76.9 µM, CNC(=O)c1cc2c(=O)n3cc(C)ccc3nc2n(Cc2ccco2)c1=N > 76.9 µM, COC(=O)c1ccccc1NC(=O)CN(C)S(=O)(=O)c1ccc(OC)cc1 > 76.9 µM, CCc1ccc(C(=O)Nc2ccc(S(=O)(=O)Nc3nc(C)cc(C)n3)cc2)o1 > 76.9 µM, NC(=O)c1ccc(NS(=O)(=O)c2ccccc2F)cc1 > 76.9 µM, Cc1ccc(NC(=O)C2CCCN2S(=O)(=O)c2ccc(F)cc2)c(C)c1 (configuration not stated) > 76.9 µM, Clc1ccc2nc(SCc3nnc(-c4ccccc4)o3)[nH]c2c1 > 76.9 µM, CCC(C)NC(=O)C1CCN(S(=O)(=O)CC)CC1 (configuration not stated) > 76.9 µM, CCCC(=O)NCc1ccc2c(c1)cc(C)n2C > 76.9 µM, Cc1nc2c(nnn2Cc2ccccc2)c(=O)n1-c1ccccc1 > 76.9 µM, Cc1nnc(C)n1/N=C/c1ccc(C(C)C)cc1 > 76.9 µM, c1ccc(OCCCc2nc(-c3ccncc3)no2)cc1 > 76.9 µM, O=C(CN1C(=O)c2ccccc2C1=O)NCC1COc2ccccc2O1 (configuration not stated) > 76.9 µM, COC(=O)C1=C(N)Oc2cc(C)n(Cc3cccnc3)c(=O)c2C1c1cccc(OC)c1OC (configuration not stated) > 76.9 µM, Cc1ccc(C(=O)OCC(=O)Nc2ccc3c(c2)OCO3)o1 > 76.9 µM, CCC1CCCCN1CCCNC(=O)C1CCC(=O)N1Cc1ccc(C)cc1 (configuration not stated) > 76.9 µM, N#Cc1cn(-c2ccccc2)nc1-c1cc2ccccc2oc1=O > 76.9 µM, Cc1noc(C)c1S(=O)(=O)N1CCC(C(=O)N2CCN(c3ccc(Cl)cc3)CC2)CC1 > 76.9 µM, O=C(C1CCCCC1)N1CCN(S(=O)(=O)c2ccc(Cl)cc2)CC1 > 76.9 µM, NC(=O)c1ccsc1NC(=O)C1CCCN1S(=O)(=O)c1ccc(Cl)cc1 (configuration not stated) > 76.9 µM, COC(=O)c1c(NC(=O)CSc2nnnn2-c2ccccc2)sc2c1CCC(C)C2 (configuration not stated) > 76.9 µM, Cc1ccc(-c2cc(C(=O)N3CCN(C(=O)c4ccco4)CC3)no2)cc1 > 76.9 µM, CCC1CCCCN1C(=O)Cn1c(=O)n(CCC(=O)NCc2ccco2)c(=O)c2sccc21 (configuration not stated) > 76.9 µM, Cc1nc(N2CCN(c3ccccc3)CC2)nc2c1C(=O)CCC2 > 76.9 µM, O=C(NCc1cccnc1)C1CC(c2ccc(F)cc2)=NO1 (configuration not stated) > 76.9 µM, O=C(CSc1nnc(-c2ccccc2)n1Cc1ccccc1)N1CCOCC1 > 76.9 µM, CCOC(=O)N1CCN(C(=O)c2ccc3nc(N4CCCCC4)sc3c2)CC1 > 76.9 µM, CCOc1ccc(-c2nnn(CC(=O)NCc3cccs3)n2)cc1 > 76.9 µM, CCCC(=O)n1nc(-c2ccc(OC)cc2)nc1N > 76.9 µM, COC(=O)C1=C(C)Nc2c(c(=O)n(C)c(=O)n2C)C1c1cccs1 (configuration not stated) > 76.9 µM, O=C(NCc1cccnc1)NC1(C(F)(F)F)Oc2ccccc2O1, CC(=O)CSc1ncnc2nc[nH]c12 > 76.9 µM, CCOc1ccc(C(C)=O)cc1COc1ccc(-n2cnnn2)cc1 > 76.9 µM, COC(=O)c1ccc(CSc2nnc3c(Cl)cc(Cl)cn23)o1 > 76.9 µM, CCOCC(=O)Nc1cccc(C(=O)OCC)c1 > 76.9 µM, CC1(C)CC(=O)c2cc(C(=O)NCc3ccco3)c(=O)n(-c3ccc(Cl)cc3)c2C1 > 76.9 µM, Cc1cccc(Cn2c(Sc3nc(C)cs3)nc3c2c(=O)[nH]c(=O)n3C)c1 > 76.9 µM, COc1ccccc1N1CCN(CC(=O)Nc2ccc(C)c(F)c2)CC1 > 76.9 µM, Cn1c(CN2CCCC2)nc2cc(NS(=O)(=O)c3ccccc3)ccc21 > 76.9 µM, O=C(NCCO)c1c(O)c2cccc3c2n(c1=O)CC3 > 76.9 µM, CCCCCCNc1cc2n(c(=O)n1)CCc1cc(OC)c(OC)cc1-2 > 76.9 µM, O=C(CCn1c(=O)oc2ccccc21)N(Cc1ccccc1)c1ccccn1 > 76.9 µM, COc1cc(OC)c(-c2nn3c(-c4ccco4)nnc3s2)cc1OC > 76.9 µM, COc1ccccc1NC(=O)CCc1nc(-c2cccs2)no1 > 76.9 µM, Cc1nc2nc(-c3ccco3)[nH]n2c(=O)c1Cc1ccccc1 > 76.9 µM, COC(=O)COc1ccc(S(=O)(=O)N2CCOCC2)cc1C > 76.9 µM, O=C(NC1CCCC1)c1cccc(S(=O)(=O)N2CCCCC2)c1 > 76.9 µM, CCOC(=O)C1C(=O)NC(N2CCCCC2)=NC1c1ccco1 (configuration not stated) > 76.9 µM, C/C(N)=C(/C#N)C(=O)COC(=O)CC1CCCC1 > 76.9 µM, COCCN(C(=O)CCC(=O)Nc1cccnc1)C(C(=O)NC1CCCCC1)c1ccccc1 (configuration not stated) > 76.9 µM, CCCn1c(SCC(=O)c2cc(OC)ccc2OC)nnc1-c1ccco1 > 76.9 µM, COC(=O)c1cc(OC)c(OC)cc1NC(=O)CSc1nnnn1Cc1ccccc1, O=C(Nc1ccc2c(c1)OCO2)N1CCN(C(=O)C2CCCO2)CC1 (configuration not stated) > 76.9 µM, COc1ccccc1C(=O)Nn1cnc2ccccc2c1=O > 76.9 µM, c1ccc(Cn2c(SCc3nc4ccccc4s3)nnc2-c2ccco2)cc1 > 76.9 µM, CCS(=O)(=O)n1nc(NCc2cccc(OC)c2)nc1NCc1cccc(OC)c1 > 76.9 µM, CC(=O)N1C(=O)N(C(C)=O)C2C1N(C(C)=O)C(=O)N2C(C)=O (configuration not stated) > 76.9 µM, O=C(Nc1ccccc1F)c1ccc(S(=O)(=O)NCC2CCCO2)cc1 (configuration not stated) > 76.9 µM, COc1ccc(-c2nnn(Cc3nn[nH]n3)n2)cc1OC > 76.9 µM, CCOC(=O)CN1C(=O)NC2NC(=O)NC21 (configuration not stated) > 76.9 µM, Cc1ccsc1CNn1cnnc1SCc1ccccc1F > 76.9 µM, CN1CCCN(C(=O)c2cc(=O)[nH]c3ccccc23)c2nc3ccccc3nc21 > 76.9 µM, O=C(CCS(=O)(=O)c1cccc2nonc12)NCCc1ccccc1Cl > 76.9 µM, CCOC(=O)C1CCN(S(=O)(=O)Cc2ccccc2)C1=O (configuration not stated) > 76.9 µM, CCCn1c2c(c(O)c(C(=O)NC)c1=O)CCCC2 > 76.9 µM, CCOCCCNC(=O)C1CCCN1S(=O)(=O)c1ccc(Cl)cc1 (configuration not stated) > 76.9 µM, O=C(Nc1nc(-c2ccccc2)ns1)c1cccs1 > 76.9 µM, CC(Oc1ccc(-c2ccccc2)cc1)C(=O)N1CCOCC1 (configuration not stated) > 76.9 µM, CCCC(=O)Nc1ccc2nc(SCC(=O)Nc3nccs3)sc2c1 > 76.9 µM, COCC(=O)NCc1nc2ccccc2[nH]1 > 76.9 µM, CCCCCN(C(=O)NC(=O)Nn1cnnc1)S(C)(=O)=O > 76.9 µM, COCCNC(=O)COC(=O)c1nsc(Cl)c1Cl > 76.9 µM, COCCNC(=O)CNS(=O)(=O)c1ccc2nc(C)sc2c1 > 76.9 µM, COCCn1c(C)cc(C(=O)COc2nc3ccccc3nc2C)c1C > 76.9 µM, COCCCNC(=O)CSC1=Nc2ccccc2C2=NC(Cc3c[nH]c4ccccc34)C(=O)N12 (configuration not stated) > 76.9 µM, Cc1ccc(Cn2nnnc2CN2CCC(O)(c3ccc(F)cc3)CC2)cc1 > 76.9 µM, CC(C)C(c1nnnn1Cc1ccc(F)cc1)N1CCSCC1 (configuration not stated) > 76.9 µM, COc1ccc2cc(C(c3nnnn3CC3CCCO3)N3CCOCC3)c(=O)[nH]c2c1 (configuration not stated) > 76.9 µM

Activity change, negative = inhibition, inactive:
Cn1c(CNc2cccc(Cl)c2)nnc1SCC(=O)OC1CCCCC1 -19.3%
